According to PubChem BioAssay AID1347165 (National Center for Advancing Translational Sciences (NCATS), 2019):
Screen size: about 220,000 compounds; about 5,700 (2.6%) were called active. The shares of active, inactive and inconclusive entries below differ from those in the screen. The call rests on the fitted dose curve; in most records, active means well fitted inhibition curve with a large enough effect; inconclusive means small, poorly fitted or top-dose-only effect; inactive means no such curve, though single readings can be large or run the other way. Where the call is inconclusive, the potency comes from a doubtful curve fit.

Molecular target: Lysine-specific demethylase 5B (Homo sapiens) (UniProt Q9UGL1)
Test: Primary screen for KDM5B Histone Demethylases FDH-coupled qHTS; further: nearly all actives have a fitted effect of over 70% in size; on activity change, negative = inhibition: 0% is about no effect
Details: FDH-coupled NADH fluorescence (FDH is formaldehyde dehydrogenase); activity change, negative = inhibition: at 57.7 µM (top of the series) unless noted
How it was run: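 Coupled FDH/NAD⁺ fluorescence readout. KDM5BΔAP 200 nM final; compound titration, 10 min RT preincubation; substrate mix 12.5 µM H3K4me3, 25 µM 2-OG, 50 µM Fe(II), 100 µM ascorbate, 0.25 mM NAD⁺, 0.25 U/mL FDH; ΔRFU over 30 min.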
Potency means the concentration at half of the fitted maximal effect; tags describe the fitted curve by direction and shape.

Chain of UniProt Q9UGL1 (Q9UGL1 whole entry, looked up): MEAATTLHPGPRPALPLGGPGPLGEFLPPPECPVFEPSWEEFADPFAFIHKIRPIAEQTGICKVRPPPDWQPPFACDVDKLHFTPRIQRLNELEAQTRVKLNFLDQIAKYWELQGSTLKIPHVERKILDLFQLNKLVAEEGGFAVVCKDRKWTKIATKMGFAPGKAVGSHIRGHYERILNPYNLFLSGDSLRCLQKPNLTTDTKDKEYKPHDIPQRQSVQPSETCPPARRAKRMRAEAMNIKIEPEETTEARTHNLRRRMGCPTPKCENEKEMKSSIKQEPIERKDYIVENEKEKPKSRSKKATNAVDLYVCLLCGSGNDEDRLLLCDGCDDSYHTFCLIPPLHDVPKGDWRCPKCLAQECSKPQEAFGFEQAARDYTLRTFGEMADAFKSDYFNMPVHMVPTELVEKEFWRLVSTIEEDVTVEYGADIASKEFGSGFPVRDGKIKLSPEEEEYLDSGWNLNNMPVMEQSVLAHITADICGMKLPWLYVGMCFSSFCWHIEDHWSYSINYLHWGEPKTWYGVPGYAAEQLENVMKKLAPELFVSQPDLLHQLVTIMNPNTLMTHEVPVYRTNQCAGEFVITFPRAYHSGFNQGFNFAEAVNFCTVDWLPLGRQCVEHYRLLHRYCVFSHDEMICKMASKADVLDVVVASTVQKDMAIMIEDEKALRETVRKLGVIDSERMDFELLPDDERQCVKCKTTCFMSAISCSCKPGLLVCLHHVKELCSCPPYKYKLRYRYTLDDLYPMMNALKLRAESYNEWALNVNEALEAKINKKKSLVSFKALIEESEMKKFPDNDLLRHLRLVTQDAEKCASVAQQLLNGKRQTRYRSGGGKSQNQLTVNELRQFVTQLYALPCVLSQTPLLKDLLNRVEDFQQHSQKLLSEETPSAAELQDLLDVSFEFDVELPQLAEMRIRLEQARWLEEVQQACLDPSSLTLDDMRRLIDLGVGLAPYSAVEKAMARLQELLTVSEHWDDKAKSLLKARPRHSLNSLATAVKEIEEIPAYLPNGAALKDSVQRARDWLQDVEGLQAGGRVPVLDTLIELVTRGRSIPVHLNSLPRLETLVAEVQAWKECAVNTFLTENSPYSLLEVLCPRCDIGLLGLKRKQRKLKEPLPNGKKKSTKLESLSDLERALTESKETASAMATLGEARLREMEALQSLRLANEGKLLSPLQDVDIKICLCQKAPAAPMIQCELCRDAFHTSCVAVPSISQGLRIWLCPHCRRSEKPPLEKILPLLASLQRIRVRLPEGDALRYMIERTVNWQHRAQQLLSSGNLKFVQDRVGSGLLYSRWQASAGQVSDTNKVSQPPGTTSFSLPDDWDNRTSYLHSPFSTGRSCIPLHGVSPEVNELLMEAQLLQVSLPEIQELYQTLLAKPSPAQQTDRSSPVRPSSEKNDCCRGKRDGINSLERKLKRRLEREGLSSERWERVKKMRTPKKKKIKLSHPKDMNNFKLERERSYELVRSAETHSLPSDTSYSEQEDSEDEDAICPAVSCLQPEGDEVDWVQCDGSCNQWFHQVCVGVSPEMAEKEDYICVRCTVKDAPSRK

Row | SMILES | Potency | activity change, negative = inhibition
1 | COc1ccc(-c2cc3nc(C)c(CCC(=O)NCc4ccccc4Cl)c(C)n3n2)c(OC)c1 | inconclusive: 31.6 µM [inhibitor, partial curve, poor fit] | 
2 | Cc1sc2ncnc(SCC(=O)Nc3ncccc3O)c2c1C | inconclusive: 25.1 µM [inhibitor, partial curve, poor fit] | 
3 | CN1[C@@H](CCC(=O)Nc2ccccc2)CNC(=O)[C@@H]2[C@H]1CCN2Cc1ccc(S(C)(=O)=O)cc1 | inconclusive: 14.1 µM [inhibitor, partial curve, poor fit] | 
4 | Cc1ccc(Nc2ccc3cc(S(=O)(=O)N4CCCCC4)ccc3n2)cc1F | inconclusive: 31.6 µM [inhibitor, partial curve, poor fit] | 
5 | CCOC(=O)c1ccc(NC(=O)CSc2nc(-c3ccc(OC)cc3)cc(C(F)(F)F)c2C#N)cc1 | inconclusive: 28.2 µM [inhibitor, partial curve, poor fit] | 
6 | CCn1cc2nc(SCC(=O)Nc3ccc(OC)c(Cl)c3)n(Cc3ccc(OC)cc3)c(=O)c2n1 | inconclusive: 1.78 µM [inhibitor, full curve, poor fit] | 
7 | Cc1cc(C(=O)N2CC(N(CC(C)C)C3CCOCC3)C2)nn1C |  | inactive: -14.7%
8 | O=C(NCCc1ccccc1)c1cc2n(n1)CC(c1ccc3c(c1)OCO3)OC2 (stereo not given) | inconclusive: 15.8 µM [inhibitor, partial curve, poor fit] | 
9 | Cc1cc(C)cc(NC(=S)N[C@H]2CO[C@H]3[C@@H]2OC[C@@H]3n2nnnc2Oc2cccc(N(C)C)c2)c1 | active: 25.1 µM | 
10 | COc1ccccc1-c1cc(-c2cccc([S+](C)(=O)[O-])c2)c2onc(C)c2n1 | inconclusive: 35.5 µM [inhibitor, partial curve, poor fit] | 
11 | CCOC(=O)c1cc(OC(=O)c2cc(OC)c(OC)c(OC)c2)n(-c2ccccc2)n1 | inconclusive: 1.26 µM [inhibitor, partial curve, poor fit] | 
12 | CC1CCN(C(=O)c2csc(N3CCN(c4ccc(Cl)cc4)CC3)n2)CC1 | inconclusive: 17.8 µM [inhibitor, single point] | 
13 | CCOC(=O)/C(C#N)=C/N=CN(C)C |  | inactive: 1.59%
14 | Nc1ccccc1C(=O)NCCc1c[nH]c2ccccc12 | inconclusive: 25.1 µM [inhibitor, single point] | 
15 | COc1ccc(NC(=O)c2cc3c(=O)n(Cc4cccs4)ccc3nc2C)cc1 | inconclusive: 44.7 µM [inhibitor, single point] | 
16 | CC1(C)c2ccccc2N2CC(=O)N[C@@]21/C=C/c1ccc(Cl)cc1 |  | inactive: 3.26%
17 | Cc1cc2c(C)c(C)[nH]c2cc1Br | inconclusive: 25.1 µM [inhibitor, partial curve, poor fit] | 
18 | COc1ccc(OC)c(NC(=O)Cn2c(=O)n(-c3cccc(C)c3)c(=O)c3c2c2cc(C)ccc2n3C)c1 | inconclusive: 15.8 µM [inhibitor, partial curve, poor fit] | 
19 | CCOC(=O)c1cc(-c2ccncc2)nc2ccccc12 |  | inactive: -17.2%
20 | COc1ccc(NC(=O)N2Cc3[nH]cnc3C[C@H]2c2nc(-c3ccc(C)cc3)no2)cc1 | inconclusive: 31.6 µM [inhibitor, partial curve] | 
21 | O=c1oc2ccc(Br)cc2cc1-c1nc(-c2cccs2)no1 |  | inactive: 13.8%
22 | Cc1ccccc1Cn1cc(-c2ccncc2)cc1C(=O)N(C)Cc1ccco1 | inconclusive: 25.1 µM [inhibitor, partial curve, poor fit] | 

Row | SMILES | Potency | activity change, negative = inhibition
23 | Cc1ncc(-c2ccc(S(=O)(=O)Nc3ccccc3)cc2)o1 |  | inactive: 4.78%
24 | COc1cc(SC)ccc1C(=O)N[C@H]1CCN2C(=O)N(c3cccc(SC)c3)C(=O)[C@@H]2C1 | inconclusive: 28.2 µM [inhibitor, single point] | 
25 | CN(C)c1nc(NCCN2CCOC2=O)ncc1F | inconclusive: 17.8 µM [inhibitor, partial curve, poor fit] | 
26 | CCn1c(=O)c2cc(C(=O)NC3CCC(C)CC3)sc2c2ccccc21 (stereo not given) | inconclusive: 3.55 µM [inhibitor, full curve, poor fit] | 
27 | CC(NC(=O)Cc1ccc(Cl)cc1)C12CC3CC(CC(C3)C1)C2 (stereo not given) |  | inactive: -21.7%
28 | COc1ccc(C(=O)CCN2CCCC(C)C2)cc1 (stereo not given) | inconclusive: 35.5 µM [inhibitor, partial curve, poor fit] | 
29 | CC1CCCCC1Nc1nc2ccc(Cl)cc2n2cnnc12 (stereo not given) | inconclusive: 22.4 µM [inhibitor, partial curve, poor fit] | 
30 | O=C(NC[C@H]1O[C@@H](CO)[C@@H](O)[C@H]1N1CCCC1)c1ccco1 | inconclusive: 31.6 µM [inhibitor, partial curve, poor fit] | 
31 | COc1ccc(C(=O)C(Cl)C(=O)c2ccc(OC)cc2)cc1 | inconclusive: 25.1 µM [inhibitor, partial curve, poor fit] | 
32 | COc1ccc(/C=C/C(=O)NCC(c2ccc(F)cc2)N2CCOCC2)cc1OC (stereo not given) | inconclusive: 11.2 µM [inhibitor, partial curve, poor fit] | 
33 | COc1cccc(NC(=O)N(Cc2c[nH]c3ccccc23)C2CCCCCC2)c1 | inconclusive: 31.6 µM [inhibitor, single point] | 
34 | Cc1ccc(S(=O)(=O)N2CCC(C(=O)Nc3nnc(-c4ccc(Cl)cc4)o3)CC2)c(C)c1 |  | inactive: 11.2%
35 | COC(=O)CCNC(=O)c1cc(-c2cccs2)nc2ccccc12 | inconclusive: 22.4 µM [inhibitor, partial curve, poor fit] | 
36 | COc1ccc(CN2CC[C@@H]3[C@H]2C(=O)NC[C@H](CCC(=O)N2CCN(c4ccccn4)CC2)N3C)cc1 | inconclusive: 31.6 µM [inhibitor, single point] | 
37 | CCC(OC(=O)CN1C(=O)C(=O)c2ccccc21)C(=O)Nc1ccccc1OC (stereo not given) | inconclusive: 28.2 µM [inhibitor, partial curve, poor fit] | 
38 | CCc1ccc2oc(C(=O)Nc3nc(C)c(C(=O)OCC(C)C)s3)cc(=O)c2c1 |  | inactive: -4.59%
39 | O=C(c1ccccc1Cl)N1CCc2nc(-c3ccccc3)nc(-c3ccc(Cl)cc3)c2C1 |  | inactive: -2.69%
40 | COc1ccccc1NC(=O)NNC(=O)c1ccc2ccccc2c1O | inconclusive: 11.2 µM [inhibitor, partial curve, poor fit] | 
41 | Cc1cc(C)c2nc(C)cc(C(=O)O)c2c1 | inconclusive: 22.4 µM [inhibitor, partial curve, poor fit] | 
42 | O=C(NCCc1csc(-c2cccc(F)c2)n1)c1ccccc1C(F)(F)F | inconclusive: 25.1 µM [inhibitor, single point] | 
43 | Cc1ccc(C)c(-c2nc3ccccc3c(C(=O)O)c2C)c1 |  | inactive: 4.78%
44 | Cc1[nH]n(C(N)=S)c(=O)c1N=Nc1cccc(C(F)(F)F)c1 | inconclusive: 10 µM [inhibitor, partial curve, poor fit] | 

Row | SMILES | Potency | activity change, negative = inhibition
45 | COC(=O)Cn1ccc2cc(S(=O)(=O)N3CCCCCC3)ccc21 | inconclusive: 1.58 µM [inhibitor, partial curve, poor fit] | 
46 | COC(=O)c1c(NC(=O)c2cc3ccccc3o2)sc(C)c1C | inconclusive: 14.1 µM [inhibitor, partial curve, poor fit] | 
47 | COc1cc2c(cc1OC)C(=O)C(Sc1nnc(-c3ccccc3F)o1)C2 (stereo not given) |  | inactive: 1.96%
48 | CCNC(=O)c1ccc(CSc2nc3cccnc3n2Cc2ccc(OC)cc2)cc1 | inconclusive: 20 µM [inhibitor, partial curve, poor fit] | 
49 | Cn1c(SCC(=O)Nc2sccc2C#N)nnc1-c1cccc(Cl)c1 |  | inactive: -0.0817%
50 | Cc1ccc(C2CCCN2S(=O)(=O)c2cnn(C(F)F)c2C)cc1 (stereo not given) |  | inactive: 8.03%
51 | CSc1ccc(-c2nc3c(C)cccn3c2Nc2ccc3c(c2)OCCO3)cc1 | inconclusive: 14.1 µM [inhibitor, partial curve, poor fit] | 
52 | CN1CC(=O)N(C2CCC2)Cc2c1ncnc2N1CCC(N2CCCCC2)CC1 | inconclusive: 39.8 µM [inhibitor, partial curve, poor fit] | 
53 | Cc1ccc(S(=O)(=O)C(C#N)c2nc3ccccc3nc2NC(C)C)cc1 (stereo not given) |  | inactive: 1640%
54 | CN1CCN(c2ccc(-c3cc4c(ccn4C)c(C(=O)NCc4cnccn4)n3)cc2)CC1 | inconclusive: 31.6 µM [inhibitor, partial curve] | 
55 | Cc1ccc(S(=O)(=O)OCCCCOS(=O)(=O)c2ccc(C)cc2)cc1 |  | inactive: 0.395%
56 | Cc1cccc(CCNC(=O)c2ccc3c(Cl)c4c(nc3c2)CCCC4)c1 |  | inactive: 7.16%
57 | CC(C)n1cc2c(C(F)(F)F)cc(=O)n(CCC(=O)O)c2n1 | inconclusive: 31.6 µM [inhibitor, single point] | 
58 | N=c1n(CCN2CCCCC2)c2ccccc2n1CC(O)COc1ccccc1 (stereo not given) | inconclusive: 39.8 µM [inhibitor, single point] | 
59 | CCC(C)NC(=O)Nc1ccc2c(c1)N(S(=O)(=O)CC)CC2 (stereo not given) |  | inactive: 13.2%
60 | CCCc1cc(=O)oc2cc(C)cc(OCC(=O)NC3CC3)c12 | inconclusive: 2.82 µM [inhibitor, full curve, poor fit] | 
61 | CCCSc1n[nH]c2nc3c(c(=O)n12)C(C)(CC)Cc1ccccc1-3 (stereo not given) |  | inactive: -24.2%
62 | Cc1cnc(C(=O)N[C@@H]2CCC[C@@H]2C(=O)NCCc2ccc(Cl)cc2)cn1 |  | inactive: -7.14%
63 | O=C(CCNC(=O)c1ccc(Cl)cc1)NCc1ccc(C(F)(F)F)cc1 |  | inactive: 14%
64 | CCOC(=O)c1ccc2ncc(C(=O)OCC)c(NCCCOC(=O)C(C)(C)C)c2c1 | inconclusive: 25.1 µM [inhibitor, partial curve, poor fit] | 
65 | Cc1c(CC(=O)Nc2nc3ccccc3[nH]2)c(=O)oc2c(C)c(O)ccc12 | inconclusive: 10 µM [inhibitor, partial curve, poor fit] | 
